In all, about 33,000 sequences were measured (“E-score (-0.5 to 0.5)”: median about -0.011, highest 2% from about 0.28 on). The list shows a part of the results.
target: T1, Gcr1 (UniProt P07261); experiment: PBM E-score (8-mer binding enrichment) (E-score (-0.5 to 0.5)); higher = stronger / more preferred TF binding; most listed sequences are background and not binding sites; details: protein concentration: 100 nM; construct: GST-full length
T1 sequence: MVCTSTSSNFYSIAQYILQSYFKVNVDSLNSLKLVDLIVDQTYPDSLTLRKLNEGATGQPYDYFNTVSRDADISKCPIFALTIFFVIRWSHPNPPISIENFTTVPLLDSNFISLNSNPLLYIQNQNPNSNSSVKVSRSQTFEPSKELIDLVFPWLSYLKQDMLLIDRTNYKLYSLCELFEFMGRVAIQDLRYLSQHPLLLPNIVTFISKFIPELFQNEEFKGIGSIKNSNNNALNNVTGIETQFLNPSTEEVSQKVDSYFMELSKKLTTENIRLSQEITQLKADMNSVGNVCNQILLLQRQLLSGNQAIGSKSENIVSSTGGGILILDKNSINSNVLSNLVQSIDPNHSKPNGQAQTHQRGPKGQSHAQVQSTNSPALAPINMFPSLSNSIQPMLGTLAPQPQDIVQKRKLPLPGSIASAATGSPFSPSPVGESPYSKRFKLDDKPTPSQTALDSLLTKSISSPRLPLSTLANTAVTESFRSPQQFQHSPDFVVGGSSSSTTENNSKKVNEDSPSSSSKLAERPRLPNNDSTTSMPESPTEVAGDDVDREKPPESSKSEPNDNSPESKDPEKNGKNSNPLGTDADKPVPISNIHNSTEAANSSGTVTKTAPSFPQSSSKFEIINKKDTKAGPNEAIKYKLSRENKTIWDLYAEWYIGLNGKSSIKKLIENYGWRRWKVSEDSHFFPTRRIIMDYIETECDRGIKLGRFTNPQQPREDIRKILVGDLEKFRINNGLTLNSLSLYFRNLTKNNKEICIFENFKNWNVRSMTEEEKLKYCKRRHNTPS
Summary of the method: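 Yeast transcription factors, full-length or as DNA-binding domains, were expressed with a GST tag using PURExpress in vitro transcription/translation. At about 100-200 nM they were applied to universal all-10-mer Agilent arrays, double-stranded by primer extension on fresh or once-stripped slides. Fluorescent anti-GST detected bound protein, and masliner normalised the scans. E-scores for ungapped eight-base words, pooled with reverse complements, came from the Universal PBM Analysis Suite.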

Sequence	PBM E-score
ATCGACGC	-0.15
TCTGGCCA	-0.183
ATGGGGCG	0.171
ACCGTAAA	-0.0552
ACTGGCAA	-0.0657
AAATGTGG	0.186
GCGCAAAA	-0.039
AAACGTAT	0.0461
ACTTGCAC	-0.126
AGACCACC	-0.0878
AGGCGGCC	0.169
AGGTCGAC	-0.148
GAGCGCGC	0.0105
GGACCCCC	-0.0112
AGGGAGTA	-0.0396
CACGTTGC	0.0658
AAGTTCAT	0.101
CCTTCAAG	-0.041
AGCACGAT	-0.106
AAGGGTAG	-0.138
GCTAGTTA	-0.176
CATCCAAG	-0.0862

Sequence	PBM E-score
ATGTATGG	0.0984
CCCCTGAA	0.0139
ATCTATTA	0.0929
AGACCCCC	-0.079
ACGCACTA	-0.207
CTTTGCCC	-0.259
AGCGCGGA	-0.126
ATACGGGC	0.152
CAGTCTGG	-0.0985
TGAACAAA	0.0314
ATTCTATG	0.132
AGGATATG	-0.229
ATACCGAA	0.146
ACGAGCCC	-0.207
GCAGAATA	0.0609
CAACTCAC	-0.078
AGATTCCA	0.426
AAGACACG	0.117
AGTCCGTC	-0.179
AGTACTAA	0.0733
AAGTTCCT	0.163
CAGGTTGG	-0.0265

Sequence	PBM E-score
ACAATGCA	-0.0197
CCGCACGG	-0.00276
CCGCCTTA	0.00216
CGAAAGCC	-0.141
CGTGGTTA	-0.119
ATGTTCAA	0.0396
GAGGTATA	-0.0396
TATATGAA	0.0517
AGTATCTG	0.113
ACTGTTGA	-0.0529
ATAGTAGA	0.191
ACGATGCA	0.0214
ATCATCGC	-0.165
CCTTTGTC	0.0286
CTACAGAA	0.0747
ATGCCCTC	-0.0918
GAGCTCGA	-0.0739
CTCCGAAG	0.126
AACGGCAC	0.0232
CAGAAATA	0.156
AGACGACG	-0.0698
ATCCAGTA	0.277

Sequence	PBM E-score
GCATGCCC	-0.223
GGGTTGAC	-0.00188
AAAAGGAG	-0.00968
CCCTCACG	-0.132
AATCGTGG	-0.0587
AATTTTTG	0.1
TCCGGGAA	0.207
CAGAGATC	-0.135
TAGGCACA	-0.179
GTGATTTA	0.178
CCCTTGTA	-0.104
GCTCGCAC	0.0418
AAGTCAAA	0.0937
AAGCACGG	-0.152
TGAGGACA	-0.117
CCGCTTAG	-0.108
CCCACAGG	-0.0129
AAACATTA	0.0249
CCTACAGC	-0.216
TCTAACCA	-0.153

Reference: the supplement of paper PMC3334620
